Assay results published in the supplement of paper PMC6206098.
± gives the uncertainty stated by the source. Shown are siRNA guide strands that differ only in the seed, positions 2 to 7.

How the values were obtained:
[1] = test system: 3LL; experiment: cell viability relative to siNT1 control; higher = less toxic; settings: concentration: 10 nM; 96 h; Mus musculus;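 also: Luminescence-based viability of cells reverse transfected in 384-well plates with lipid-complexed siRNAs built on a non-toxic 19mer backbone whose passenger strand carries 2′-O-methyl groups at positions 1 and 2, triplicates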
Protocol: (§1)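 Arrayed screen of 4096 siRNA duplexes, each carrying one of all possible 6mer seeds at guide-strand positions 2-7 in a fixed neutral 19mer scaffold (constant flanks: U at position 1, then ACAUGUAAACCA, plus a 3' AA overhang). The passenger strand is 2'-O-methylated at positions 1-2 so only the guide strand loads into RISC. Duplexes were reverse-transfected at 10 nM with RNAiMAX in triplicate in 384-well plates; viability was read by CellTiter-Glo ATP content 96 h after transfection. Values are % viability normalised to lipid-only wells (HeyA8, H460, M565) or to siNT1 (3LL).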

[2] = test system: H460; experiment: cell viability relative to lipid-only control; HeyA8 human ovarian and H460 human lung cancer; M565 mouse liver and 3LL mouse lung cancer; siNT1 is a non-toxic control siRNA; higher = less toxic; settings: concentration: 10 nM; 96 h; Homo sapiens
Protocol: as §1

[3] = test system: HeyA8; experiment: as above; settings: concentration: 10 nM; 96 h; Homo sapiens
Protocol: as §1

[4] = test system: M565; experiment: as above; settings: concentration: 10 nM; 96 h; Mus musculus
Protocol: as §1
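For cell viability relative to lipid-only control in this document: reverse lipid transfection in 384-well plates, in triplicate, of duplexes on a non-toxic 19mer backbone with passenger strand 2′-O-methylated at positions 1 and 2, luminescence viability read-out.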

Sequence	cell viability [1] [%]	cell viability [2] [%]	cell viability [3] [%]	cell viability [4] [%]
UGGAAUAACAUGUAAACCAAA	101 ± 11	64 ± 7.9	91.6 ± 13	41 ± 4.5
UUCUCACACAUGUAAACCAAA	73.6 ± 9	52.1 ± 6.7	65.9 ± 2.5	33.6 ± 3
UCUCCGAACAUGUAAACCAAA	97.4 ± 19	47.9 ± 4.8	88.7 ± 7.4	67.3 ± 14
UGAUGUAACAUGUAAACCAAA	89 ± 19	69.9 ± 8.5	18.6 ± 1.9	42.9 ± 3.3
UUUCCUUACAUGUAAACCAAA	67.4 ± 5	58.1 ± 11	66.2 ± 5.3	89.9 ± 9.5
UCAGAUCACAUGUAAACCAAA	93.6 ± 18	38.2 ± 1.6	45.7 ± 7	28.3 ± 2.2
UCAGAUAACAUGUAAACCAAA	95.9 ± 17	67.3 ± 1.4	90.3 ± 6.1	66.8 ± 5.4
UCCAGUCACAUGUAAACCAAA	59.3 ± 10	49.3 ± 0.99	17.7 ± 3.8	10.3 ± 1.1
UCCACAUACAUGUAAACCAAA	105 ± 17	65.5 ± 6	80.2 ± 9.3	80 ± 28
UCUCAAAACAUGUAAACCAAA	102 ± 15	39.5 ± 3.1	91.2 ± 5.2	75.1 ± 12
UUGUUGGACAUGUAAACCAAA	11.8 ± 2.4	42.6 ± 8.1	62.4 ± 6	8.03 ± 2.4
UGAUCGAACAUGUAAACCAAA	87.1 ± 20	55.4 ± 6	68.1 ± 7.6	47.5 ± 5.2
UUUCGGAACAUGUAAACCAAA	95.1 ± 5.8	69.2 ± 3.3	98.6 ± 4.6	65.3 ± 12
UCCUUACACAUGUAAACCAAA	105 ± 20	79.7 ± 7.3	53.1 ± 3.2	93.9 ± 10
UCCUUGGACAUGUAAACCAAA	72.1 ± 11	66.4 ± 7.6	22.5 ± 1.4	44.5 ± 2.9
UUCAGGAACAUGUAAACCAAA	90.2 ± 20	68 ± 12	88.8 ± 14	44.5 ± 2.8
UAGCGAAACAUGUAAACCAAA	94.5 ± 8.3	85.2 ± 19	81.3 ± 7.3	67.8 ± 5.3
UAGGAUCACAUGUAAACCAAA	62.7 ± 12	34.8 ± 0.59	13.8 ± 2	66.9 ± 5.8
UGCGCAAACAUGUAAACCAAA	89.4 ± 13	86.8 ± 21	84 ± 1.8	95.5 ± 4.1
UAACUGAACAUGUAAACCAAA	85.1 ± 13	57.9 ± 5.4	79.8 ± 11	52.9 ± 11
UAAGUCAACAUGUAAACCAAA	79.6 ± 6	91.9 ± 11	81.9 ± 16	62.59 ± 0.61
UUUUCCGACAUGUAAACCAAA	89.4 ± 1.8	90.2 ± 8.6	90.6 ± 3.2	89.4 ± 9.3

Sequence	cell viability [1] [%]	cell viability [2] [%]	cell viability [3] [%]	cell viability [4] [%]
UCGAGAAACAUGUAAACCAAA	89 ± 18	65.5 ± 2.1	84.6 ± 10	68.2 ± 5.7
UAUUACGACAUGUAAACCAAA	103 ± 15	74.8 ± 7.9	95.9 ± 13	98.5 ± 19
UAGAUUAACAUGUAAACCAAA	92.7 ± 3	102 ± 16	90.6 ± 7.7	69.9 ± 5.7
UGAUUUUACAUGUAAACCAAA	39.2 ± 3.7	52.8 ± 5.9	50.5 ± 5.6	45 ± 11
UAGACGAACAUGUAAACCAAA	84.3 ± 9.3	76.8 ± 13	94.6 ± 9.7	61.7 ± 2.5
UGAAGUCACAUGUAAACCAAA	31.7 ± 9.3	12 ± 1.4	3.83 ± 0.38	4.24 ± 0.27
UUCCAUAACAUGUAAACCAAA	103 ± 25	46.6 ± 7.7	96.3 ± 15	89.4 ± 5.1
UGCUACGACAUGUAAACCAAA	85.7 ± 14	62.8 ± 4.6	52.4 ± 4.6	85.3 ± 5.7
UUGGAAAACAUGUAAACCAAA	92.7 ± 9.3	103 ± 17	86 ± 9.1	79.9 ± 19
UGGGAUUACAUGUAAACCAAA	25.8 ± 7.1	61.5 ± 5.2	30.1 ± 1.1	25.6 ± 5.6
UGUCAAUACAUGUAAACCAAA	75.1 ± 13	64.6 ± 6.6	96.6 ± 5	29.3 ± 8.6
UCACUUUACAUGUAAACCAAA	97.6 ± 17	37.3 ± 5.7	64.8 ± 5.8	88.5 ± 1.6
UUCCGUUACAUGUAAACCAAA	43.4 ± 9.3	72.3 ± 3.8	93.4 ± 10	39.8 ± 2.3
UCGAAAAACAUGUAAACCAAA	87 ± 12	74.1 ± 26	87.2 ± 3.3	77.4 ± 9.2
UCUUUCGACAUGUAAACCAAA	97.1 ± 14	60.7 ± 2	90.2 ± 12	79.6 ± 12
UUAUCGAACAUGUAAACCAAA	77.9 ± 23	79.5 ± 9.9	96 ± 6.2	73.9 ± 5.2
UGGCGCGACAUGUAAACCAAA	47.9 ± 3.9	38.6 ± 3.7	25.4 ± 1.4	28.1 ± 3.9
UAACGAUACAUGUAAACCAAA	98.9 ± 10	61.2 ± 4.9	96.6 ± 7.3	81.8 ± 16
UGAGCCCACAUGUAAACCAAA	2.27 ± 0.19	20.1 ± 3.8	39.4 ± 1.7	1.97 ± 1.3
UCCACAAACAUGUAAACCAAA	101 ± 28	47.8 ± 4.9	82.9 ± 6	66.2 ± 18
UCAAGCUACAUGUAAACCAAA	63.6 ± 12	58.8 ± 9.1	63.4 ± 6.2	18.1 ± 1.9
UAAAAAGACAUGUAAACCAAA	112 ± 11	71.5 ± 7.2	97.9 ± 6	94 ± 18

Sequence	cell viability [1] [%]	cell viability [2] [%]	cell viability [3] [%]	cell viability [4] [%]
UCACCUAACAUGUAAACCAAA	95.7 ± 11	61.2 ± 8.1	86.1 ± 6.3	78.3 ± 6.3
UCGGUCAACAUGUAAACCAAA	92.7 ± 6.9	68.1 ± 9.4	69.9 ± 6.2	48 ± 5.2
UCCGCCGACAUGUAAACCAAA	101 ± 13	76.8 ± 11	82.8 ± 5.2	65.9 ± 9.7
UGAACCUACAUGUAAACCAAA	77.7 ± 9.8	91.3 ± 19	80.9 ± 4.1	39.1 ± 2.6
UUAUUAGACAUGUAAACCAAA	40.4 ± 8.1	64 ± 4.8	76.1 ± 4.1	96.7 ± 6.2
UUUAUAUACAUGUAAACCAAA	90.2 ± 5.8	76 ± 20	94.6 ± 9.8	80 ± 1.8
UCAAAGGACAUGUAAACCAAA	89.4 ± 12	109 ± 12	79.8 ± 7.7	60.3 ± 7.5
UACCGAAACAUGUAAACCAAA	83.8 ± 5.8	72.1 ± 13	90.5 ± 2.9	71.3 ± 6.5
UGGAUUCACAUGUAAACCAAA	93.4 ± 9.9	55.5 ± 5.1	66.2 ± 3.6	23.3 ± 1.9
UACAAGUACAUGUAAACCAAA	46 ± 5.3	63.8 ± 2.1	45 ± 5	17.5 ± 2.7
UGAGGGAACAUGUAAACCAAA	73 ± 15	43.2 ± 3.4	21.8 ± 1.8	15.8 ± 3.9
UGCCGCUACAUGUAAACCAAA	17.3 ± 4.6	45.5 ± 3.7	13.2 ± 2	12.9 ± 3.8
UCCUCCAACAUGUAAACCAAA	85.3 ± 18	73.5 ± 15	83.2 ± 7.1	58.4 ± 11
UUCAUCCACAUGUAAACCAAA	10.6 ± 0.35	53.1 ± 7	27.7 ± 5.5	25 ± 5.5
UGCUGUGACAUGUAAACCAAA	7.85 ± 0.97	78.9 ± 3.8	58.1 ± 3.7	6.93 ± 3.7
UAAUUAAACAUGUAAACCAAA	116 ± 6.3	93.6 ± 3.8	96.6 ± 11	92.3 ± 22
UAGUCGAACAUGUAAACCAAA	79.2 ± 9.1	87 ± 17	74 ± 5.3	32.2 ± 3.6
UCUUUACACAUGUAAACCAAA	86.9 ± 14	70.1 ± 0.89	82.7 ± 5.6	76.2 ± 3.3
UAUGGCUACAUGUAAACCAAA	33.6 ± 5	48.3 ± 6	76.9 ± 1.9	31.8 ± 5.2
UAUUUGCACAUGUAAACCAAA	39.4 ± 9.7	82.5 ± 10	63.9 ± 5.2	55.9 ± 5.5
UGAGUAAACAUGUAAACCAAA	90 ± 19	90.9 ± 11	96.7 ± 1.8	38.4 ± 8.1
UGUAGUCACAUGUAAACCAAA	32.4 ± 11	21.4 ± 3.5	2.82 ± 0.24	12.8 ± 0.14

Sequence	cell viability [1] [%]	cell viability [2] [%]	cell viability [3] [%]	cell viability [4] [%]
UUGUUGCACAUGUAAACCAAA	53.3 ± 6.8	76.3 ± 6.1	81.6 ± 8	42.1 ± 10
UCUACAUACAUGUAAACCAAA	98.5 ± 8.4	53.4 ± 2.2	85 ± 4.3	76.7 ± 11
UGUGUGCACAUGUAAACCAAA	16.7 ± 5.7	25.1 ± 1	11.7 ± 0.26	23.1 ± 6.5
UGGUCGGACAUGUAAACCAAA	57.5 ± 1.1	17.6 ± 4.2	25.8 ± 3.3	41.7 ± 4
UAGACCCACAUGUAAACCAAA	33.3 ± 1.4	50.9 ± 3	55 ± 4.8	31.3 ± 1.8
UAGGGUUACAUGUAAACCAAA	36.3 ± 6.8	57.3 ± 1.5	28.6 ± 2.1	16.9 ± 5.8
UAACGGGACAUGUAAACCAAA	75.3 ± 3.2	77.9 ± 16	70.5 ± 11	61.8 ± 16
UUUGCGAACAUGUAAACCAAA	98.8 ± 3	86.2 ± 8.2	99.2 ± 2.6	96.8 ± 13
UUAUUAAACAUGUAAACCAAA	72.6 ± 10	69 ± 9.8	92.8 ± 5.7	110 ± 18
UUGAUAAACAUGUAAACCAAA	97.5 ± 8.4	66.5 ± 8.8	91.6 ± 4.9	109 ± 14
UCACGAAACAUGUAAACCAAA	102 ± 9.2	41.6 ± 9.5	89.1 ± 5.1	78.3 ± 14
UCUUAAUACAUGUAAACCAAA	96.8 ± 15	61.9 ± 13	84.3 ± 12	79.7 ± 14
UAGACUGACAUGUAAACCAAA	89.1 ± 6	70.3 ± 14	87 ± 28	48.2 ± 5.2
UGAGAGUACAUGUAAACCAAA	49.5 ± 13	50.4 ± 7.8	40.4 ± 4.5	3.92 ± 0.19
UAUGCUCACAUGUAAACCAAA	52.5 ± 11	72.1 ± 8.7	70.8 ± 2.6	51.9 ± 19
UGUCGGGACAUGUAAACCAAA	33.4 ± 0.73	41.8 ± 6.5	24.7 ± 3.9	23.8 ± 3.6
UUUGAACACAUGUAAACCAAA	95.5 ± 7	96.7 ± 12	90.5 ± 3.5	98.8 ± 17
UUCUUGGACAUGUAAACCAAA	35.8 ± 1.8	35.4 ± 4.2	50.5 ± 3.6	35.7 ± 3.9
UAAUAUGACAUGUAAACCAAA	118 ± 7.8	75.5 ± 4	86 ± 11	75.5 ± 7.5
UGUUCUGACAUGUAAACCAAA	88.1 ± 6.3	63 ± 5.5	69.3 ± 12	51.9 ± 5.9
UUAAUCUACAUGUAAACCAAA	92.2 ± 14	76.4 ± 19	66.4 ± 4.2	83.2 ± 20
UUCCCAGACAUGUAAACCAAA	76.7 ± 16	84.4 ± 4.5	74.1 ± 9.1	38.3 ± 10
